The campaign covered roughly 2,000 compounds. About 110 (5.5%) showed an effect of 50% or more. This is one part of the list.

As usually defined, the inhibition is the relative decrease from the control value, in per cent.

This test deals with Genome polyprotein (dengue virus type 2) (UniProt P29990).
Setting [1] is: Thailand/16681/1984, Concentration 25.0 uM, Number of replicates 1.0.

Regarding `Cc1[nH]nnc1CNC(=O)[C@]1(c2ccc(F)cc2)CCCNC1`, the inhibition is -0.131% (Thailand/16681/1984, Concentration 49.5 uM, Number of replicates 2.0, Standard deviation 0.34288319939631623 %); -0.659% (Thailand/16681/1984, Concentration 99.01 uM, Number of replicates 2.0, Standard deviation 0.40057464857499825 %); -0.62% (Thailand/16681/1984, Concentration 198.0 uM, Number of replicates 2.0, Standard deviation 1.688291483666346 %).

As to `CC(C)(C)OC(=O)N[C@H](C(=O)Nc1cccc(C(N)=O)c1)c1ccc(OCc2ccccc2)cc1`, the inhibition was 2.72% (Thailand/16681/1984, Concentration 49.5 uM, Number of replicates 2.0, Standard deviation 1.188000805409302 %); 5.59% (Thailand/16681/1984, Concentration 99.01 uM, Number of replicates 2.0, Standard deviation 0.11203913598390365 %); 7.47% (Thailand/16681/1984, Concentration 198.0 uM, Number of replicates 2.0, Standard deviation 0.9108004769909699 %).

With `CN(Cc1cccc2cccnc12)C(=O)C1CCN(c2ccc(C=O)cc2)CC1`, the inhibition under setting [1] turned out to be 14.9%.

For the compound `Cc1nn(C[C@@H]2CC3(CC3)S(=O)(=O)N2)cc1C1CCNCC1`, the inhibition runs as follows: (Thailand/16681/1984, Concentration 49.5 uM, Number of replicates 2.0, Standard deviation 0.004982431843563849 %) -0.506%; (Thailand/16681/1984, Concentration 99.01 uM, Number of replicates 2.0, Standard deviation 1.0725852853911906 %) -1.64%; (Thailand/16681/1984, Concentration 198.0 uM, Number of replicates 2.0, Standard deviation 0.46019703454478256 %) -0.129%.

Consider `O=C(Nc1ccc2c(c1)B(O)OC2)c1cccc(OCc2c(Cl)cccc2Cl)c1`, for which the inhibition reads like this: (Thailand/16681/1984, Concentration 49.5 uM, Number of replicates 2.0, Standard deviation 1.0901211560637243 %) 19.7%; (Thailand/16681/1984, Concentration 99.01 uM, Number of replicates 2.0, Standard deviation 0.0726220545573632 %) 28.3%; (Thailand/16681/1984, Concentration 198.0 uM, Number of replicates 2.0, Standard deviation 0.8886497792875844 %) 48.3%.

`c1cncc(CN2CC[C@H](c3c[nH]c4ccccc34)C2)c1`: the inhibition is, setting by setting: (Thailand/16681/1984, Concentration 49.5 uM, Number of replicates 2.0, Standard deviation 0.701809322723789 %) -0.758%; (Thailand/16681/1984, Concentration 99.01 uM, Number of replicates 2.0, Standard deviation 0.005419378758788415 %) -0.106%; (Thailand/16681/1984, Concentration 198.0 uM, Number of replicates 2.0, Standard deviation 0.679047938258905 %) 2.74%.

For the compound `CCn1ccnc(N2CC[C@H](c3cccnc3)C2)c1=O`, the inhibition by setting is: (Thailand/16681/1984, Concentration 49.5 uM, Number of replicates 2.0, Standard deviation 1.1794090860466593 %) 9.76%; (Thailand/16681/1984, Concentration 99.01 uM, Number of replicates 2.0, Standard deviation 0.4566331181081256 %) 17.4%; (Thailand/16681/1984, Concentration 198.0 uM, Number of replicates 2.0, Standard deviation 0.521943874560607 %) 30.8%.

`O=Cc1ccc(N2CCC(C(=O)Nc3ncccc3OCc3ccccc3)CC2)cc1`: the inhibition under setting [1] was 8.41%.

As for `O=Cc1ccc(N2CCC(C(=O)NCCCn3nccc3C3CC3)CC2)cc1`, under setting [1], the inhibition was 15.6%.

Consider `O=Cc1ccc(N2CCC(C(=O)N3CCN(c4cccc([N+](=O)[O-])c4)CC3)CC2)cc1`, for which the inhibition under setting [1] worked out at 10.2%.

For `CCc1ccccc1S(=O)(=O)Nc1ccc(Cl)cc1C(=O)NC`, the inhibition is -3.04% (Thailand/16681/1984, Concentration 49.5 uM, Number of replicates 2.0, Standard deviation 0.5004375178772561 %); -5.13% (Thailand/16681/1984, Concentration 99.01 uM, Number of replicates 2.0, Standard deviation 0.3390370044417576 %); -8.94% (Thailand/16681/1984, Concentration 198.0 uM, Number of replicates 2.0, Standard deviation 0.452208710538846 %).

On to `C=CCN(C(=O)C1CCN(c2ccc(C=O)cc2)CC1)[C@H]1CCS(=O)(=O)C1`, for which the inhibition under setting [1] came to 14.8%.

Turning to `Cc1nc([C@H]2CCCNC2)[nH]c1C(=O)N1CC[C@H](Oc2ccc(C(N)=O)cc2)C1`, the inhibition (Thailand/16681/1984, Concentration 49.5 uM, Number of replicates 2.0, Standard deviation 2.3952209741346326 %) is -1.21%; the inhibition (Thailand/16681/1984, Concentration 99.01 uM, Number of replicates 2.0, Standard deviation 1.3723206907713277 %) was -0.315%; the inhibition (Thailand/16681/1984, Concentration 198.0 uM, Number of replicates 2.0, Standard deviation 1.2934192615480233 %) turned out to be 0.162%.

In the case of `O=Cc1ccc(N2CCC(C(=O)NCC(=O)c3ccc(O)cc3)CC2)cc1`, under setting [1], the inhibition is 24.6%.

For `CN(Cc1ccc(Cl)cc1)C(=O)C1CCN(c2ccc(C=O)cc2)CC1`, the inhibition under setting [1] was 14%.

Regarding `CNC(=O)c1cc(Cl)ccc1NS(=O)(=O)c1ccc(N2CCN(C)CC2)cc1`, the inhibition (Thailand/16681/1984, Concentration 49.5 uM, Number of replicates 2.0, Standard deviation 0.08610681229787821 %) was 0.821%; the inhibition (Thailand/16681/1984, Concentration 99.01 uM, Number of replicates 2.0, Standard deviation 0.4310124703668382 %) was 0.867%; the inhibition (Thailand/16681/1984, Concentration 198.0 uM, Number of replicates 2.0, Standard deviation 0.6883761316524271 %) amounted to 1.75%.

With `O=Cc1ccc(N2CCC(C(=O)Nc3ccc(F)c(Br)c3)CC2)cc1`, the inhibition under setting [1] turned out to be 11.7%.

For the compound `COc1ccc(CN(C)C(=O)C2CCN(c3ccc(C=O)cc3)CC2)c(OC)c1`, the inhibition under setting [1] stood at 14%.

For the compound `NC(=O)c1ccc(CNC(=O)NCc2ccc(OCc3ccccc3)cc2)cc1`, the inhibition by setting is: (Thailand/16681/1984, Concentration 49.5 uM, Number of replicates 2.0, Standard deviation 0.6584955649548859 %) -0.275%; (Thailand/16681/1984, Concentration 99.01 uM, Number of replicates 2.0, Standard deviation 0.579227797958503 %) 0.348%; (Thailand/16681/1984, Concentration 198.0 uM, Number of replicates 2.0, Standard deviation 0.34476708449941224 %) -0.309%.

On to `Oc1c(CNCc2nnc3ccccn23)ccc(F)c1F`, for which the inhibition reads like this: (Thailand/16681/1984, Concentration 49.5 uM, Number of replicates 2.0, Standard deviation 2.4207923311365867 %) 1.93%; (Thailand/16681/1984, Concentration 99.01 uM, Number of replicates 2.0, Standard deviation 8.877682452871714 %) 6.11%; (Thailand/16681/1984, Concentration 198.0 uM, Number of replicates 2.0, Standard deviation 0.406835436480746 %) 6.15%.

As to `CCn1ccnc(N2CC[C@H](C3CCOCC3)C2)c1=O`, the inhibition (Thailand/16681/1984, Concentration 50.0 uM, Number of replicates 2.0, Standard deviation 0.082374498127996 %) amounted to 7.77%; the inhibition (Thailand/16681/1984, Concentration 100.0 uM, Number of replicates 2.0, Standard deviation 0.22598802996753292 %) was 16.5%; the inhibition (Thailand/16681/1984, Concentration 200.0 uM, Number of replicates 2.0, Standard deviation 0.7164411280199523 %) came out at 29.2%.

With `COc1cccc(N2C[C@@H](NC(=O)C3CCN(c4ccc(C=O)cc4)CC3)CC2=O)c1`, the inhibition under setting [1] amounted to 13.3%.

As for `CC[C@H]1c2cccn2CCN1C(=O)C1CCN(c2ccc(C=O)cc2)CC1`, the inhibition under setting [1] is 9.97%.

Consider `CN(C)Cc1ccc(CN(C)C(=O)C2CCN(c3ccc(C=O)cc3)CC2)cc1`, for which the inhibition under setting [1] came out at 13.6%.

In the case of `c1ccc2c([C@H]3CCN(CC[C@H]4CCCOC4)C3)c[nH]c2c1`, the inhibition runs as follows: (Thailand/16681/1984, Concentration 49.5 uM, Number of replicates 2.0, Standard deviation 0.10584354925280222 %) -2.92%; (Thailand/16681/1984, Concentration 99.01 uM, Number of replicates 2.0, Standard deviation 1.1156488278571965 %) -1.89%; (Thailand/16681/1984, Concentration 198.0 uM, Number of replicates 2.0, Standard deviation 1.1137416829620788 %) -1.06%.

As to `O=Cc1ccc(N2CCC(C(=O)NCc3ccccc3Oc3ccccc3)CC2)cc1`, the inhibition under setting [1] came out at 1.74%.

For `CN(C)Cc1ccc(S(=O)(=O)Nc2cc(Cl)cc(C(=O)NC(C)(C)CO)c2)cc1`, the inhibition is, setting by setting: (Thailand/16681/1984, Concentration 49.5 uM, Number of replicates 2.0, Standard deviation 0.03630462095770794 %) -4.04%; (Thailand/16681/1984, Concentration 99.01 uM, Number of replicates 2.0, Standard deviation 1.3834969391783556 %) -4.68%; (Thailand/16681/1984, Concentration 198.0 uM, Number of replicates 2.0, Standard deviation 0.4655810626343824 %) -3.5%.

Source of the values: ChEMBL document CHEMBL5606460, “ASAP - DENV-2 NS2B-NS3 protease fluorescence single point” (2024).
